From PubChem BioAssay AID1745853 (National Center for Advancing Translational Sciences (NCATS), 2022) come the findings set out here.

What all share (assay): Primary Screen for Target Class Profiling of Small Molecule Inhibitors of Methyltransferases
Assay [1] addresses Glycine N-methyltransferase (Homo sapiens) (UniProt Q14749). Conditions: purified enzyme, MTase-Glo SAH luminescence; measured here: GNMT inhibition; at 40 µM; stronger effect = lower value. The essentials: (§1)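 Each enzyme was assayed with SAM and its substrate. SAH formation detected by MTase-Glo luminescence; single-point 40 uM screen[…].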
The target of assay [2] is Guanidinoacetate N-methyltransferase (Homo sapiens) (UniProt Q14353). The conditions noted are these: purified enzyme, MTase-Glo SAH luminescence; measured here: GAMT inhibition; at 40 µM; stronger effect = lower value. The method, boiled down: as §1
In assay [3] the target is Histamine N-methyltransferase (Homo sapiens) (UniProt P50135). Conditions: purified enzyme, MTase-Glo SAH luminescence; measured here: HNMT inhibition; at 40 µM; stronger effect = lower value. The method, boiled down: as §1
Assay [4] addresses Nicotinamide N-methyltransferase (Homo sapiens) (UniProt P40261). The conditions noted are these: purified enzyme, MTase-Glo SAH luminescence; measured here: NNMT inhibition; at 40 µM; stronger effect = lower value. The essentials:
as §1

The target of assay [5] is Phenylethanolamine N-methyltransferase (Homo sapiens) (UniProt P11086). Conditions: purified enzyme, MTase-Glo SAH luminescence; measured here: PNMT inhibition; at 40 µM; stronger effect = lower value. The method, boiled down:
as §1

Values joined by “and” are separate entries in the source; they are usually repeats but may differ in a detail not shown here. Equal entries are not always repeated. The list shows a part of the results. Shown are side measurements of this screen, not its main read-out; they come without a call.
On the % scale 0 is the no-effect control and ±100 the full control effect.

For the molecule `Cn1c(=O)c(-c2c(Cl)cccc2Cl)cc2cnc(Nc3cccc(C(=O)O)c3)nc21`, the activity change, negative = inhibition in assay [1] is 2.62%; in assay [2], 7.36%; in assay [3], 10.2%; in assay [4], -10.5%; in assay [5], 5.17%.

As to `CC(/C=C/C1(O)C2(C)COC1(C)CC(=O)C2)O[C@@H]1O[C@H](CO)[C@@H](O)[C@H](O)[C@H]1O` (stereo partly drawn), the activity change, negative = inhibition in assay [1] is 4.81%; in assay [2] it was 4%; in assay [3], 10.7%; in assay [4], -6.42%; in assay [5] it was 5.18%.

On to `CC1(C(=O)NCc2ccccc2)Cn2c(ccc2-c2ccco2)C(=O)N1Cc1ccc(Cl)cc1` (stereo not drawn), for which the activity change, negative = inhibition in assay [1] is 2.33%; in assay [2] it was 0%; in assay [3] it was 6.21%; in assay [4], 2.06%; in assay [5], 0.925%.

As to `CNC(=O)c1ccccc1Nc1nc(Nc2ccc3c(c2OC)CCCC(N2CCN(CCO)CC2)C3)ncc1Cl` (stereo not drawn), the activity change, negative = inhibition in assay [1] was -27.2%; in assay [3], -53.1%.

As to `O=C(NC1CCc2n[nH]c(=O)n2CC1)c1ccc(Cn2ccnc2)o1` (stereo not drawn), the activity change, negative = inhibition in assay [1] was -1.62%; in assay [2], -4.85%; in assay [3], -1.3%; in assay [4] it was -0.303%; in assay [5], 2.25%.

For `CCCCN1C(=O)CC[C@H]2CN(C(=O)CCn3cccc3)CC[C@H]21`, the activity change, negative = inhibition in assay [1] is -4.79%; in assay [2], -8.08%; in assay [3], -2.06%; in assay [4], -10%; in assay [5], -7.24%.

For `CNC(=O)N1CCC(C2CCN(C(=O)c3cnccc3C)C2)CC1` (stereo not drawn), the activity change, negative = inhibition was -2.39% in assay [1]; -2.4% in assay [2]; 0.105% in assay [3]; 0.402% in assay [4]; 7.62% in assay [5].

For the molecule `O=C(CCc1nnc2n(CCc3ccccc3)c(=O)c3ccccc3n12)N1CC=C(c2ccccc2)CC1`, the activity change, negative = inhibition in assay [1] was -6.42%; in assay [2] it was 3.66%; in assay [3] it was -4.14%; in assay [4], -5.9%; in assay [5], -5.77%.

`CCN(CC)C(=O)[C@@H]1C[C@@H](n2cc(Cn3c(C)nc4ccccc43)nn2)CN1`: the activity change, negative = inhibition in assay [1] is -5.75%; in assay [2] it was -7.66%; in assay [3], -2.33%; in assay [4], -10.6%; in assay [5], -4.66%.

Consider `Cc1noc(C)c1-c1cc2cc(CO)oc2c(-c2ccc([S+](C)(=O)[O-])cc2)n1`, for which the activity change, negative = inhibition in assay [1] was -14.7%; in assay [2], -5.43%; in assay [3] it was -9.89%; in assay [4] it was -15%; in assay [5] it was -3.85%.

As for `CC1C/C=C/C=C\CCCCC(O)C/C=C/C(=O)O1` (stereo not drawn), the activity change, negative = inhibition was 0.004% in assay [1]; 1.62% in assay [2]; 7.68% in assay [3]; -14.7% in assay [4]; -9.29% in assay [5].

For the molecule `O=C1NC(=O)c2cc(Nc3ccc(F)cc3)c(Nc3ccc(F)cc3)cc21`, the activity change, negative = inhibition in assay [2] was -12.3%; in assay [4], -29.2%; in assay [5], -14.8%.

As to `CCc1noc(-c2cn(C3CCN(C(=O)C4(c5ccccc5)CC4)C3)nn2)n1` (stereo not drawn), the activity change, negative = inhibition in assay [1] is -3.81%; in assay [2], -0.395%; in assay [3], 0.989%; in assay [4] it was -4.78%; in assay [5], -0.508%.

Regarding `COc1cccc(NC(=O)CCc2nnc3n(Cc4ccccc4)c(=O)c4ccccc4n23)c1`, the activity change, negative = inhibition in assay [1] stood at 0.314%; in assay [2] it was 0%; in assay [3] it was 6.59%; in assay [4] it was 5.05%; in assay [5] it was 2.6%.

As for `NC(=O)C1(N2CCCCC2)CCN(c2nccc(-c3ccncc3)n2)CC1`, the activity change, negative = inhibition is -9.27% in assay [1]; -6.63% in assay [2]; -7.81% in assay [3]; -9.41% in assay [4]; -4.1% in assay [5].

In the case of `COc1ccc([C@@H]2Sc3ccccc3N(CCN(C)C)C(=O)[C@@H]2OC(C)=O)cc1`, the activity change, negative = inhibition in assay [1] is 8.83%; in assay [2] it was 0.059% and 5.49%; in assay [3], 15.8%; in assay [4], -13.6% and -9.56%; in assay [5], -0.383% and 2.88%.

On to `CC1OC(OC2CCC3(C)C(CCC4(C)C3CC=C3C5CC(C)(C)CCC5(C(=O)OC5OC(CO)C(O)C(O)C5O)CCC34C(=O)O)C2(C)C)C(O)C(O)C1O` (stereo not drawn), for which the activity change, negative = inhibition in assay [1] is 5.95%; in assay [2] it was 4.78%; in assay [3], 1.81%; in assay [4], -8.61%; in assay [5] it was 6.29%.

For `COc1ccc(N2C(=O)c3cc4ccc(OC)cc4n3CC2(C)C(=O)NC2CCCCC2)c(OC)c1` (stereo not drawn), the activity change, negative = inhibition in assay [1] was -11%; in assay [2], 4.41%; in assay [3] it was -1.27%; in assay [4], -24.3%; in assay [5], -1.36%.

As to `COC(=O)CCC1(C)C(C(C)(C)O)C(O)CC2(C)Oc3c(C)c4c(c(OC)c3CC21)C(=O)OC4` (stereo not drawn), the activity change, negative = inhibition in assay [1] was 0.473%; in assay [2], 4.41%; in assay [3], 4.53%; in assay [4], -12.3%; in assay [5] it was 3%.

For the molecule `C/C1=C\C[C@]2(C)C(=O)C(O)=C([C@H](C)CO)[C@H]2C/C=C(\C)[C@@H](O)CC/C(C)=C/CC1`, the activity change, negative = inhibition is -6.48% in assay [1]; -12.9% in assay [2]; -1.16% in assay [3]; -22.4% in assay [4]; -8.97% in assay [5].

Take `Cc1cc2c3c([nH]c2cc1S(=O)(=O)NCCN1CCN(c2ccccc2F)CC1)CCCC3=O`: the activity change, negative = inhibition in assay [1] was -2.69%; in assay [2], 0.862%; in assay [3], 5.09%; in assay [4], 3.92%; in assay [5] it was 9.35%.

As for `CC(=O)NCCNc1cc(Cl)nn2c(-c3cccc(S(=O)(=O)N(C)C)c3)c(C)nc12`, the activity change, negative = inhibition was 3.04% in assay [2], -11.9% in assay [4] and -0.259% in assay [5].

With `COc1ccc2c(c1)C(=O)N(CCc1ccc(S(=O)(=O)NC(=O)NC3CCCCC3)cc1)C(=O)C2(C)C`, the activity change, negative = inhibition in assay [1] is -22.3%; in assay [2], 2.63%; in assay [3], -1.83%; in assay [4], -22.8%; in assay [5], -9.69%.

As to `O=C(c1cccnc1)N1CCN(c2cc(-c3ccccc3)[nH]n2)CC1`, the activity change, negative = inhibition in assay [1] was -1.78%; in assay [2], -0.991%; in assay [3], 1.81%; in assay [4], -0.368%; in assay [5], -0.151%.

Take `COc1cc(NC(=O)CCC2CCCN(C(=O)CCN3CCCCO3)C2)cc(OC)c1` (stereo not drawn): the activity change, negative = inhibition was -5.44% in assay [1]; -8.49% in assay [2]; -2.92% in assay [3]; -12.8% in assay [4]; -8.04% in assay [5].

For `O=S(=O)(c1ccccc1)N1CC(Oc2ccc(-c3noc(C4CC4)n3)cc2)C1`, the activity change, negative = inhibition in assay [1] was -5.17%; in assay [2], -4.98%; in assay [3], -2.05%; in assay [4], -6.12%; in assay [5] it was -0.762%.

On to `Cc1cccc(NC(=O)Cn2nc3n(C(C)C)c(=O)c4ccc(C(=O)NC5CCCC5)cc4n3c2=O)c1`, for which the activity change, negative = inhibition is 0.106% in assay [1]; 2.97% in assay [2]; -5.44% in assay [3]; 6.38% in assay [4]; -4.68% in assay [5].

As to `CC1(C(=O)NC2CCCCC2)Cc2ccccc2C(=O)N1Cc1cccs1` (stereo not drawn), the activity change, negative = inhibition is -3.32% in assay [1]; 4.27% in assay [2]; 2.84% in assay [3]; 4.52% in assay [4]; -4.26% in assay [5].

With `CC1CCC23COC(=O)C2=CC(O)CC3C1(C)CCC1=CC(=O)OC1O` (stereo not drawn), the activity change, negative = inhibition is 1.71% in assay [1]; 5.8% in assay [2]; 8.04% in assay [3]; -6.85% in assay [4]; 5.79% in assay [5].

With `COCCN1CCCC1c1nc(C2CN(S(=O)(=O)c3cccc(OC)c3)C2)no1` (stereo not drawn), the activity change, negative = inhibition in assay [1] was found to be 1.5%; in assay [2] it was 2.5%; in assay [3], 2.32%; in assay [4], 2.84%; in assay [5] it was 5.67%.
